Data taken from publication PMC4336329 (PLoS ONE, 2015).
Screen size: about 310,000 compounds; about 14,000 (4.5%) showed an effect of 50% or more. Effects have a minus sign here. Some of the results follow.
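Note: peak tail current of the secondary pulse compared with the same well before compound.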

What follows are compounds tested against human ether-à-go-go-related gene (hERG) potassium channel (human, UniProt Q12809) (assay: primary screen, population patch clamp on CHO cells stably expressing hERG).
Chain of human ether-à-go-go-related gene (hERG) potassium channel (Q12809 whole entry, looked up): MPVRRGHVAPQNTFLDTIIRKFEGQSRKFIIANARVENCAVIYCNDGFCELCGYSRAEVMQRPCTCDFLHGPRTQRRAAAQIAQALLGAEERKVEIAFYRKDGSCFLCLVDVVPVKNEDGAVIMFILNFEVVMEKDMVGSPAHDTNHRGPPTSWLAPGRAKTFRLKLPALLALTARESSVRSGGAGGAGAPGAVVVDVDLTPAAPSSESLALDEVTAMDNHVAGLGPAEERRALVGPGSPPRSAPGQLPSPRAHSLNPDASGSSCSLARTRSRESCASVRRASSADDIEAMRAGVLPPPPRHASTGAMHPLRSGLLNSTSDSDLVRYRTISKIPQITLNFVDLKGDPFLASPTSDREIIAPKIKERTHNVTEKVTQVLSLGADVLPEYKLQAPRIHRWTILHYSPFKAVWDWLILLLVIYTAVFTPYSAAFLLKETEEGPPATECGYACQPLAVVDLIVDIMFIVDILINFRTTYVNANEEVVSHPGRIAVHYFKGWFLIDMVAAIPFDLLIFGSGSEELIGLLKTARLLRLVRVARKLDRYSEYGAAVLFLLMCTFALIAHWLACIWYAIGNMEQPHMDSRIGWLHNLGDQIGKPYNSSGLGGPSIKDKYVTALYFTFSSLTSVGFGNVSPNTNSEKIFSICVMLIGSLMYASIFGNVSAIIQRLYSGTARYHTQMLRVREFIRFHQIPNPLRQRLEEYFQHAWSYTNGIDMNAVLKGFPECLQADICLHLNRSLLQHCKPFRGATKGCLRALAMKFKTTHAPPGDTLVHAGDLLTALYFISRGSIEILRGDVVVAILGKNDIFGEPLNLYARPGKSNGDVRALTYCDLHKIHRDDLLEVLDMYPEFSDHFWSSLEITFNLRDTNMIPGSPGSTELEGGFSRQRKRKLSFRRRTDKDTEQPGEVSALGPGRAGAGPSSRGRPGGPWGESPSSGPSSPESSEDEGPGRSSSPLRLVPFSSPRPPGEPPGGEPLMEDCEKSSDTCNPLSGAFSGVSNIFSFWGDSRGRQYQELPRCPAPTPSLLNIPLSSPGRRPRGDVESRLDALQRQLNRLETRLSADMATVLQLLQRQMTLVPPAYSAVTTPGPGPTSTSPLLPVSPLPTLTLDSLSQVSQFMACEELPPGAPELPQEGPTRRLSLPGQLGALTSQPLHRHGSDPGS
For `Cc1ccnc(N2CCC(C(=O)NCc3ccc(F)cc3)CC2)n1`, the “hERG current change (%, negative = inhibition) at 10uM” value was -12%.
With `Cc1nnc(NC(=O)c2ccc3ccccc3c2)o1` the “hERG current change (%, negative = inhibition) at 10uM” value was 10.9%.
In the case of `CCOc1ccc2nc(NCCCNC(=O)c3cc(OC)c(OC)c(OC)c3)c(C#N)cc2c1`, the “hERG current change (%, negative = inhibition) at 10uM” value is reported as -51.3%.
In the case of `O=C(NCc1ccco1)c1ccccc1F`, the “hERG current change (%, negative = inhibition) at 10uM” value is reported as 7.62%.
For `CCCNC(=O)c1cccc(COCC(F)(F)F)c1`, the “hERG current change (%, negative = inhibition) at 10uM” value was -2.57%.
With `CCOc1ccccc1CN1CCNC(=O)C1CC(=O)NCCN1CCOC1=O` (stereo not drawn) the “hERG current change (%, negative = inhibition) at 10uM” value was 16.6%.
In the case of `O=C(N/N=C/c1ccncc1)C1CC1(c1ccccc1)c1ccccc1` (stereo not drawn), the “hERG current change (%, negative = inhibition) at 10uM” value is reported as -24.9%.
In the case of `O=C(O)C1CCCCC1C(=O)NCc1ccccn1` (stereo not drawn), the “hERG current change (%, negative = inhibition) at 10uM” value is reported as 22.3%.
`O=C(N/N=C/c1c[nH]c2ccccc12)c1ccc2c(c1)OCCO2` was tested, and the “hERG current change (%, negative = inhibition) at 10uM” value was -12.5%.
In the case of `CC(=O)Cc1nsc(NC(=O)c2oc(-c3ccccc3Cl)cc2C)n1`, the “hERG current change (%, negative = inhibition) at 10uM” value is reported as 14.6%.
In the case of `O=C(CC(C(=O)O)C1CCCO1)NCc1ccccc1` (stereo not drawn), the “hERG current change (%, negative = inhibition) at 10uM” value is reported as -0.104%.
`CSc1ncccc1C(=O)Nc1ccc(S(=O)(=O)Nc2nccs2)cc1` was tested, and the “hERG current change (%, negative = inhibition) at 10uM” value was -4.52%.
In the case of `COc1ccc(OC)c2sc(N(CCCN(C)C)C(=O)CCS(=O)(=O)c3ccccc3)nc12.Cl`, the “hERG current change (%, negative = inhibition) at 10uM” value is reported as -70.5%.
In the case of `O=C1Nc2cc(Cl)c(Cl)cc2N(O)N1c1cccc(Cl)c1`, the “hERG current change (%, negative = inhibition) at 10uM” value is reported as 21%.
In the case of `CC(=O)N(CCC(c1ccco1)C(C)C)Cc1ccc(Cl)cc1` (stereo not drawn), the “hERG current change (%, negative = inhibition) at 10uM” value is reported as -20%.
With `Cc1cccc(CSc2nnc(N)n2-c2ccccc2)c1` the “hERG current change (%, negative = inhibition) at 10uM” value was -7.13%.
`Cc1cc(C)cc(C(=O)NCCCc2ccccc2)c1` was tested, and the “hERG current change (%, negative = inhibition) at 10uM” value was -4.26%.
With `O=C(CSCc1ccc(Br)cc1)NCCc1ccccc1` the “hERG current change (%, negative = inhibition) at 10uM” value was -12.8%.
With `COc1ccccc1CNC(=O)C1CCN(C(=O)NC2CCCCC2)CC1` the “hERG current change (%, negative = inhibition) at 10uM” value was 10.6%.
In the case of `Cc1cccc(C)c1NC(=O)NN=C1CCCCC1`, the “hERG current change (%, negative = inhibition) at 10uM” value is reported as 12.8%.
In the case of `Cc1ccc(S(=O)(=O)N(C)C)cc1NC(=S)NC(C)CCCC(C)C` (stereo not drawn), the “hERG current change (%, negative = inhibition) at 10uM” value is reported as -3.02%.
`c1csc(-c2nn3c(Cn4cnc5ccccc54)nnc3s2)c1` was tested, and the “hERG current change (%, negative = inhibition) at 10uM” value was 4.33%.
With `CC#CC(=O)N1CCC(n2nccc2NC(=O)c2ccc3c(c2)OCO3)CC1` the “hERG current change (%, negative = inhibition) at 10uM” value was -11.4%.
`CCCc1nc2c(nnn2Cc2ccccc2Cl)c(=O)[nH]1` was tested, and the “hERG current change (%, negative = inhibition) at 10uM” value was 64.6%.
For `COc1ccc(NS(=O)(=O)c2cc(NC(=O)c3ccccc3F)ccc2N2CCCC2)cc1`, the “hERG current change (%, negative = inhibition) at 10uM” value was 4.48%.
For `CC(=O)C1=C(O)C(=O)N(Cc2ccco2)C1c1ccccc1F` (stereo not drawn), the “hERG current change (%, negative = inhibition) at 10uM” value was 19%.
`Cc1nc(SCC(=O)c2ccc(F)cc2)n[nH]1` was tested, and the “hERG current change (%, negative = inhibition) at 10uM” value was 10.1%.
With `O=C(c1ccc(-c2cccc(C(F)(F)F)c2)o1)N1CCOCC1` the “hERG current change (%, negative = inhibition) at 10uM” value was -21.8%.
For `Cc1ccc(C)c(NC(=O)CCC(=O)N/N=C/c2ccc3c(c2)OCO3)c1`, the “hERG current change (%, negative = inhibition) at 10uM” value was 9.41%.
With `C/C(=N\Nc1ccc(Cl)c(C(=O)O)c1)c1ccc[nH]1` the “hERG current change (%, negative = inhibition) at 10uM” value was 10.6%.
With `CC(C(=O)Nc1ccc(N2CCOCC2)cc1)N1C(=O)NC(C)(C)C1=O` (stereo not drawn) the “hERG current change (%, negative = inhibition) at 10uM” value was 17.6%.
`COc1ccc(C2/C=C\CN(C(=O)C3CC3)CC(=O)N2Cc2ccc(F)cc2)cc1` (stereo not drawn) was tested, and the “hERG current change (%, negative = inhibition) at 10uM” value was -7.06%.
For `CC(=O)N1CCN(C(=O)COc2ccccc2C(=O)Nc2ccccc2)CC1`, the “hERG current change (%, negative = inhibition) at 10uM” value was -53.2%.
With `CCOC(=O)c1cc2c(=O)n3ccccc3nc2n(Cc2ccco2)c1=NC(=O)c1ccccc1OC` the “hERG current change (%, negative = inhibition) at 10uM” value was -68.9%.
For `COc1ccc(CCC(=O)OCC(=O)N(C)c2c(N)n(Cc3ccccc3)c(=O)[nH]c2=O)cc1`, the “hERG current change (%, negative = inhibition) at 10uM” value was 10.1%.
For `O=C(NC1CCSc2ccccc21)c1cccc(OC(F)F)c1` (stereo not drawn), the “hERG current change (%, negative = inhibition) at 10uM” value was -43.3%.
For `COC(=O)C(Cc1ccccc1)OS(N)(=O)=O` (stereo not drawn), the “hERG current change (%, negative = inhibition) at 10uM” value was 16.1%.
For `Cc1cccc(NS(=O)(=O)c2cccc(C(=O)NCC(C)(C)N3CCOCC3)c2)c1`, the “hERG current change (%, negative = inhibition) at 10uM” value was 4.99%.
With `COc1ccc(S(=O)(=O)N2CCCC2C(=O)Nc2ccc(O)cc2)cc1` (stereo not drawn) the “hERG current change (%, negative = inhibition) at 10uM” value was -1.6%.
With `CCOc1ccc2ncc(S(=O)(=O)c3ccccc3)c(N3CCC4(CC3)OCCO4)c2c1` the “hERG current change (%, negative = inhibition) at 10uM” value was -42.4%.
With `CC1CC(C)CN(C(=O)CNC(=O)c2sc3ccccc3c2Cl)C1` (stereo not drawn) the “hERG current change (%, negative = inhibition) at 10uM” value was -43.2%.
With `C=C(C)COc1ccc(-c2[nH]ncc2Oc2cccc(OC)c2)c(O)c1` the “hERG current change (%, negative = inhibition) at 10uM” value was 13%.
`CC(C)c1nc(N2CCOCC2)c(C#N)c2c1CCCC2` was tested, and the “hERG current change (%, negative = inhibition) at 10uM” value was 2.45%.
In the case of `COC(=O)c1ccc(N/C=C\C(=O)c2ccc3c(c2)OCO3)cc1`, the “hERG current change (%, negative = inhibition) at 10uM” value is reported as 9.01%.
With `O=C(CSc1ccc(-c2ccc(Cl)cc2)nn1)N1CCCc2ccccc21` the “hERG current change (%, negative = inhibition) at 10uM” value was -7.81%.
`COc1cc2cc(CN(Cc3cccnc3)C(=O)Nc3ccccc3F)c(=O)[nH]c2cc1OC` was tested, and the “hERG current change (%, negative = inhibition) at 10uM” value was 8.25%.
For `CN(C)c1ccc(NC(=O)CN2CCN(S(=O)(=O)c3cc(Cl)ccc3Cl)CC2)cc1`, the “hERG current change (%, negative = inhibition) at 10uM” value was -1.09%.
`NNC(=O)c1ccc(Cn2cc(Br)cn2)o1` was tested, and the “hERG current change (%, negative = inhibition) at 10uM” value was 2.95%.
With `O=NC1=C(c2c(O)[nH]c3ccccc23)CCCC1` the “hERG current change (%, negative = inhibition) at 10uM” value was -6.02%.
For `Cl.N#Cc1cccc(C(c2nnnn2C2CCCC2)N2CCCCCC2)c1` (stereo not drawn), the “hERG current change (%, negative = inhibition) at 10uM” value was -32.4%.
For `CCOC(=O)c1cnc(-c2ccccc2)nc1N1CC(C)OC(C)C1` (stereo not drawn), the “hERG current change (%, negative = inhibition) at 10uM” value was -5.42%.
`CCn1c(COc2cccc(C)c2)nnc1SCC(=O)Nc1cccc(C(=O)O)c1` was tested, and the “hERG current change (%, negative = inhibition) at 10uM” value was 9.41%.
For `N#CCSc1nnc(-c2cccnc2)n1-c1ccccc1`, the “hERG current change (%, negative = inhibition) at 10uM” value was -7.93%.
For `COc1ccc(NS(=O)(=O)c2cccc(C(=O)NCCCN3CCOCC3)c2)cc1`, the “hERG current change (%, negative = inhibition) at 10uM” value was 5.96%.
`COc1cccc(C(C(=O)NC(C)(C)C)N(Cc2ccco2)C(=O)CCC(=O)Nc2cc(C)on2)c1OC` (stereo not drawn) was tested, and the “hERG current change (%, negative = inhibition) at 10uM” value was 6.21%.
For `COC(=O)c1ccc(CN2C(=O)NC3(CCCCC3C)C2=O)o1` (stereo not drawn), the “hERG current change (%, negative = inhibition) at 10uM” value was -11.4%.
With `CCC(C)[C@H](NC(=O)[C@@H]1Cc2ccccc2CN1)C(=O)Nc1ccc2c(c1)OCO2` (stereo partly drawn) the “hERG current change (%, negative = inhibition) at 10uM” value was -6.43%.
